± gives the standard deviation of the averaged measurements. Growth of baker's yeast expressing single-residue variants of Pneumocystis jirovecii dihydrofolate reductase in 8.8 or 44 µM methotrexate (about 75% and 90% inhibition of the wild type). Selection coefficient per generation; 0 = like wild type, above 0 = less sensitive, below 0 = more sensitive or loss of function. No active / inactive call per row; the paper calls resistant above 0.220 (8.8 µM) or 0.243 (44 µM) together with a significance test. At 44 µM about 15% of codons end with one read or none, so the lowest values are floors (replicate rank correlation 0.74; 0.94 at 8.8 µM).
B1: UniProt A0EPZ9; numbered along this chain (parent)
chain: MDWQKSLTLIVALTLSRGIGLKNDLPWKLKSDMMFFSRVTSGLLVTRSTGQMNVVLMGRKTWESLPAHSRPLKNRINVVISRQEVLDLGGGAYHARSLDDALALLSQIYDSTSKIQLNRVFVIGGGELCKAAMEHSRLNRIIATVIHNEVDCDVFFPIDFRSSQSCLPWRKQDHSVLEAWVGSKVPQGKINENGFIYEFEMWIRDI

Variants of: B1
Assay: selection coefficient against synonymous wild-type codons (log2 per generation); higher = faster growth than wild type
Conditions: with Saccharomyces cerevisiae carrying the variant on a plasmid
Protocol: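 Pooled growth of yeast carrying single-residue variants of P. jirovecii dihydrofolate reductase (own DFR1 gene intact), two passages at 30 °C, three cultures, sequenced before and after. Codons with under 15 starting reads are left out; codons of one change are averaged.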

| Variant | selection coefficient against synonymous wild-type codons (log2) (methotrexate 8.8 µM) | selection coefficient against synonymous wild-type codons (log2) (methotrexate 44 µM) |
| --- | --- | --- |
| C166K | 0.0485 ± 0.0098 | -0.0105 ± 0.043 |
| C166I | -0.028 ± 0.015 | -0.127 ± 0.15 |
| C166V | -0.0033 ± 0.025 | -0.11 ± 0.15 |
| C166F | -0.134 ± 0.06 | -0.0889 ± 0.098 |
| C166L | 0.00208 ± 0.05 | -0.0362 ± 0.081 |
| S165L | 0.0343 ± 0.028 | 0.0102 ± 0.068 |
| S165N | -0.0181 ± 0.039 | -0.0472 ± 0.14 |
| S165I | 0.0123 ± 0.035 | -0.0908 ± 0.061 |
| S165D | 0.0791 ± 0.027 | 0.0543 ± 0.14 |
| S165R | -0.0122 ± 0.069 | -0.102 ± 0.086 |
| S165G | 0.0252 ± 0.035 | -0.0291 ± 0.093 |
| S165K | 0.0934 ± 0.051 | 0.0931 ± 0.032 |
| S165M | 0.00607 ± 0.029 | 0.081 ± 0.043 |
| S165Q | 0.0265 ± 0.028 | -0.0149 ± 0.03 |
| S165W | -0.0799 ± 0.028 | -0.219 ± 0.1 |
| S165P | 0.028 ± 0.049 | -0.0865 ± 0.14 |
| S165H | -0.0303 ± 0.067 | -0.0357 ± 0.13 |
| S165Y | -0.0753 ± 0.056 | -0.0796 ± 0.062 |
| S165C | -0.0437 ± 0.071 | -0.0911 ± 0.088 |
| S165E | 0.0578 ± 0.028 | 0.00338 ± 0.1 |
| S165T | -0.0223 ± 0.034 | -0.111 ± 0.066 |
| S165A | 0.0027 ± 0.046 | -0.0718 ± 0.094 |
| S165V | 0.00619 ± 0.043 | -0.0701 ± 0.11 |
| S165F | -0.0717 ± 0.01 | -0.0551 ± 0.021 |

| Variant | selection coefficient against synonymous wild-type codons (log2) (methotrexate 8.8 µM) | selection coefficient against synonymous wild-type codons (log2) (methotrexate 44 µM) |
| --- | --- | --- |
| D173E | -0.0274 ± 0.025 | 0.122 ± 0.27 |
| D173T | -0.189 ± 0.071 | -0.216 ± 0.18 |
| D173N | -0.155 ± 0.079 | -0.152 ± 0.15 |
| D173K | -0.171 ± 0.063 | -0.208 ± 0.15 |
| D173M | -0.186 ± 0.044 | -0.231 ± 0.15 |
| D173I | -0.233 ± 0.041 | -0.242 ± 0.12 |
| D173R | -0.302 ± 0.11 | -0.321 ± 0.1 |
| D173G | -0.163 ± 0.057 | -0.258 ± 0.14 |
| D173W | -0.391 ± 0.084 | -0.359 ± 0.15 |
| D173Y | -0.167 ± 0.1 | -0.0774 ± 0.096 |
| D173A | -0.169 ± 0.059 | -0.184 ± 0.14 |
| D173S | -0.19 ± 0.081 | -0.156 ± 0.11 |
| D173V | -0.215 ± 0.058 | -0.17 ± 0.12 |
| D173H | -0.171 ± 0.035 | -0.151 ± 0.088 |
| D173L | -0.202 ± 0.045 | -0.2 ± 0.12 |
| D173Q | -0.156 ± 0.044 | -0.179 ± 0.18 |
| D173C | -0.252 ± 0.12 | -0.258 ± 0.11 |
| D173F | -0.326 ± 0.048 | -0.396 ± 0.087 |
| D173P | -0.0726 ± 0.039 | -0.0616 ± 0.28 |
| W169A | 0.00781 ± 0.38 | 0.121 ± 0.45 |
| W169F | -0.00839 ± 0.06 | -0.102 ± 0.032 |
| W169T | -0.399 ± 0.089 | -0.423 ± 0.061 |
| W169K | -0.728 ± 0.16 | -0.395 ± 0.044 |
| W169V | -0.189 ± 0.072 | -0.185 ± 0.1 |

| Variant | selection coefficient against synonymous wild-type codons (log2) (methotrexate 8.8 µM) | selection coefficient against synonymous wild-type codons (log2) (methotrexate 44 µM) |
| --- | --- | --- |
| W169R | -0.585 ± 0.2 | -0.296 ± 0.14 |
| W169M | -0.00404 ± 0.056 | -0.126 ± 0.076 |
| W169C | -0.142 ± 0.08 | -0.205 ± 0.062 |
| W169Y | -0.112 ± 0.044 | -0.211 ± 0.047 |
| W169G | -0.444 ± 0.14 | -0.276 ± 0.12 |
| W169I | -0.242 ± 0.063 | -0.2 ± 0.12 |
| W169N | -0.425 ± 0.16 | -0.13 ± 0.0069 |
| W169D | -0.75 ± 0.1 | -0.399 ± 0.07 |
| W169L | -0.101 ± 0.053 | -0.106 ± 0.14 |
| W169H | -0.341 ± 0.14 | -0.357 ± 0.029 |
| W169Q | -0.784 ± 0.022 | -0.407 ± 0.03 |
| W169S | -0.446 ± 0.084 | -0.327 ± 0.14 |
| W169E | -0.731 ± 0.17 | -0.375 ± 0.12 |
| S175F | -0.326 ± 0.064 | -0.315 ± 0.13 |
| S175L | -0.221 ± 0.07 | -0.205 ± 0.1 |
| S175Q | -0.0112 ± 0.031 | -0.0203 ± 0.054 |
| S175A | -0.00845 ± 0.052 | -0.0191 ± 0.071 |
| S175C | -0.153 ± 0.027 | -0.209 ± 0.12 |
| S175R | -0.076 ± 0.052 | -0.115 ± 0.066 |
| S175K | 0.0092 ± 0.043 | -0.0762 ± 0.097 |
| S175P | -0.0568 ± 0.063 | -0.108 ± 0.11 |
| S175M | -0.148 ± 0.083 | -0.257 ± 0.11 |
| S175V | -0.246 ± 0.086 | -0.29 ± 0.14 |
| S175H | -0.0426 ± 0.017 | -0.0633 ± 0.038 |

| Variant | selection coefficient against synonymous wild-type codons (log2) (methotrexate 8.8 µM) | selection coefficient against synonymous wild-type codons (log2) (methotrexate 44 µM) |
| --- | --- | --- |
| S175T | -0.0706 ± 0.021 | -0.15 ± 0.067 |
| S175E | 0.0644 ± 0.059 | 0.0235 ± 0.028 |
| S175W | -0.382 ± 0.081 | -0.23 ± 0.029 |
| S175G | -0.00858 ± 0.02 | -0.0972 ± 0.16 |
| S175N | 0.0197 ± 0.022 | -0.0536 ± 0.078 |
| S175I | -0.355 ± 0.059 | -0.247 ± 0.094 |
| S175Y | -0.311 ± 0.052 | -0.231 ± 0.14 |
| V176I | -0.0127 ± 0.063 | -0.00837 ± 0.3 |
| V176A | 0.0852 ± 0.022 | -0.0327 ± 0.14 |
| V176S | 0.0531 ± 0.043 | -0.0216 ± 0.068 |
| V176F | -0.122 ± 0.018 | -0.215 ± 0.049 |
| V176H | 0.0122 ± 0.049 | -0.0908 ± 0.05 |
| V176K | 0.0555 ± 0.025 | 0.0406 ± 0.074 |
| V176N | 0.0307 ± 0.011 | -0.0114 ± 0.082 |
| V176Q | 0.119 ± 0.036 | 0.122 ± 0.015 |
| V176G | 0.0117 ± 0.058 | -0.0566 ± 0.042 |
| V176P | -0.136 ± 0.032 | -0.264 ± 0.14 |
| V176C | 0.00272 ± 0.019 | -0.107 ± 0.077 |
| V176T | 0.0345 ± 0.037 | -0.023 ± 0.064 |
| V176M | -0.0616 ± 0.0044 | -0.043 ± 0.049 |
| V176W | -0.17 ± 0.12 | -0.288 ± 0.13 |
| V176D | 0.117 ± 0.029 | 0.107 ± 0.055 |
| V176E | 0.144 ± 0.039 | 0.106 ± 0.033 |
| V176L | -0.0614 ± 0.051 | -0.109 ± 0.16 |

| Variant | selection coefficient against synonymous wild-type codons (log2) (methotrexate 8.8 µM) | selection coefficient against synonymous wild-type codons (log2) (methotrexate 44 µM) |
| --- | --- | --- |
| V176R | -0.0307 ± 0.051 | -0.195 ± 0.16 |
| H174R | -0.0376 ± 0.045 | -0.0616 ± 0.11 |
| H174I | -0.237 ± 0.15 | 0.111 ± 0.49 |
| H174C | -0.156 ± 0.083 | -0.124 ± 0.036 |
| H174L | -0.135 ± 0.081 | -0.24 ± 0.18 |
| H174A | -0.0737 ± 0.07 | -0.126 ± 0.22 |
| H174G | -0.0556 ± 0.031 | -0.202 ± 0.18 |
| H174P | -0.0422 ± 0.047 | -0.098 ± 0.087 |
| H174N | -0.105 ± 0.16 | -0.0648 ± 0.046 |
| H174K | 0.0753 ± 0.043 | 0.0623 ± 0.078 |
| H174E | -0.0521 ± 0.058 | -0.288 ± 0.12 |
| H174T | -0.0664 ± 0.099 | -0.269 ± 0.11 |
| H174Q | -0.0469 ± 0.093 | -0.112 ± 0.026 |
| H174M | -0.164 ± 0.11 | -0.312 ± 0.2 |
| H174W | -0.147 ± 0.037 | -0.348 ± 0.054 |
| H174F | -0.278 ± 0.051 | -0.361 ± 0.038 |
| H174V | -0.228 ± 0.081 | -0.292 ± 0.12 |
| H174D | -0.0666 ± 0.058 | -0.17 ± 0.042 |
| H174S | -0.0264 ± 0.06 | -0.115 ± 0.11 |
| H174Y | -0.2 ± 0.083 | -0.253 ± 0.04 |

Source: the supplement of paper PMC11125491
